Values marked as one replicate rest on one cluster of the flow cell; about a third of the high ones do not repeat.
System: ATP
Assay: switch fluorescence ratio, 500 uM ATP over buffer (Cy3 cluster intensity, sum of 5 cycles each) (fold (ratio)); higher = stronger signal-on switching upon ATP binding; sequences stand for … in TCGTCGGCAGCGTCAGATGTGTATAAGAGACAGTTTTTTTTTTTTTTTTTTTTTTTTT…TC
Conditions: aptamer strand: ATP DNA aptamer (quencher-CACCTGGGGGAGTATTGCGGAGGAAGG + anchor), 100 nM annealed; ATP concentration: 500 uM; one replicate
In short: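 Imaging in selection buffer was followed by imaging after 15 min with 500 uM ATP at 22 °C, for Cy3-labelled switching-strand clusters annealed to 100 nM quencher-labelled ATP aptamer on a modified Illumina MiSeq flow-cell. Five of these buffer/ATP cycles ran, separated by NaOH stripping and re-annealing. The fluorescence ratio per cluster is summed target-cycle over summed buffer-cycle Cy3 intensity, averaged per switch-domain sequence; clusters outside 100-1000 RFU were removed.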
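Further: ATP exposure 15 min at 22 °C before imaging.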

TGTGAAGACT was tested, and the switch fluorescence ratio was 1.
TGTATCATAG was tested, and the switch fluorescence ratio was 1.03.
Sequence GGTATGCAAC has a switch fluorescence ratio of 0.968.
For CGACAATATT, the switch fluorescence ratio was 1.01.
For CGGTAGATGG, the switch fluorescence ratio was 0.979.
With TATGGGGAAG the switch fluorescence ratio was 0.967.
Sequence TATTAGGATA has a switch fluorescence ratio of 0.978.
Sequence CACTTTACCC has a switch fluorescence ratio of 1.28.
For CATGGCTACG, the switch fluorescence ratio was 0.987.
TTTGCTCAT was tested, and the switch fluorescence ratio was 0.955.
In the case of CTTAGCTTGG, the switch fluorescence ratio is reported as 1.04.
For GAGGATAAAT, the switch fluorescence ratio was 1.01.
In the case of GGTCGGGCAA, the switch fluorescence ratio is reported as 1.2.
TTGATCGATA showed a switch fluorescence ratio of 1.02.
Work on GGGGCCAAGC yielded a switch fluorescence ratio of 1.03.
Work on GGGGGTGTCC yielded a switch fluorescence ratio of 1.09.
Sequence AGGACAAGCT has a switch fluorescence ratio of 0.999.
AGTAGGGATA gave a switch fluorescence ratio of 1.01.
TCAACGGTTA gave a switch fluorescence ratio of 1.02.
In the case of ACCGCTCTCT, the switch fluorescence ratio is reported as 1.31.
ATGCCCTCGT showed a switch fluorescence ratio of 0.981.
GTTCGGTCTT showed a switch fluorescence ratio of 0.98.
Sequence GTTATCGGGT has a switch fluorescence ratio of 0.968.
In the case of ACTATGCGTG, the switch fluorescence ratio is reported as 1.01.
Sequence CTGGGTGCCT has a switch fluorescence ratio of 0.982.
Sequence ATTGTGGCGT has a switch fluorescence ratio of 0.972.
CTGTTCAGGG was tested, and the switch fluorescence ratio was 0.949.
In the case of GTTAAAGTAC, the switch fluorescence ratio is reported as 1.36.
For TGGGATCTGA, the switch fluorescence ratio was 0.983.
In the case of GATGTGGGAT, the switch fluorescence ratio is reported as 1.
With TCATAGGATG the switch fluorescence ratio was 1.01.
In the case of GAGGCCGAAT, the switch fluorescence ratio is reported as 1.04.
With GCGTAAGTTA the switch fluorescence ratio was 0.985.
With CACGCGGAAA the switch fluorescence ratio was 1.04.
CCTATTGAGG gave a switch fluorescence ratio of 1.09.
Sequence GAGCGCAAGG has a switch fluorescence ratio of 1.03.
With AGATATTTCA the switch fluorescence ratio was 0.955.
AGAATACAGC gave a switch fluorescence ratio of 1.01.
For GTCGGAAGCC, the switch fluorescence ratio was 1.04.
In the case of ATAACTTAGC, the switch fluorescence ratio is reported as 1.05.
Sequence TCTAAAGAGA has a switch fluorescence ratio of 0.997.
TCGTTATACG was tested, and the switch fluorescence ratio was 1.03.
Work on AGTCCGGGGG yielded a switch fluorescence ratio of 1.05.
CACAGATGAA was tested, and the switch fluorescence ratio was 1.
Sequence TACTTAGCAG has a switch fluorescence ratio of 1.1.
Work on TGCAGGCTTG yielded a switch fluorescence ratio of 0.992.
ATTGCCCAAG was tested, and the switch fluorescence ratio was 0.96.
With ATACGACTAG the switch fluorescence ratio was 0.963.
With ATGAAACAGG the switch fluorescence ratio was 1.05.
Work on GATTTTGTCA yielded a switch fluorescence ratio of 1.02.
Work on CTAGGCTAGA yielded a switch fluorescence ratio of 1.04.
For TATTTGAGAG, the switch fluorescence ratio was 1.
Sequence GGACGTAGCA has a switch fluorescence ratio of 1.3.
Sequence GCGCCATGTT has a switch fluorescence ratio of 0.996.
For CCTGAGGTTG, the switch fluorescence ratio was 1.02.
For TTTATTCCAT, the switch fluorescence ratio was 1.02.
With GTGCAGGGCA the switch fluorescence ratio was 0.971.
Work on AAACCGGGTT yielded a switch fluorescence ratio of 0.996.
With CTCGTCTATT the switch fluorescence ratio was 1.01.
Sequence ATTCACCTAT has a switch fluorescence ratio of 1.08.
Work on ACGTCCAGGA yielded a switch fluorescence ratio of 1.04.
Work on TCAGGCCGCG yielded a switch fluorescence ratio of 1.03.
Sequence AGAGGGAGT has a switch fluorescence ratio of 0.995.
GAAGGGCAAT was tested, and the switch fluorescence ratio was 0.954.
For CGTACTTTTC, the switch fluorescence ratio was 1.06.
With GCGGGCGCGT the switch fluorescence ratio was 0.972.
Work on CATCTCTAGA yielded a switch fluorescence ratio of 1.05.
Work on CCACCTGGCA yielded a switch fluorescence ratio of 1.21.
GGAAAAAAAT gave a switch fluorescence ratio of 0.923.
GCGCAAAAAC was tested, and the switch fluorescence ratio was 1.28.
Sequence TCGGAAAAGA has a switch fluorescence ratio of 1.04.
ATGCGCGGA was tested, and the switch fluorescence ratio was 1.02.
GGTCAGGACG was tested, and the switch fluorescence ratio was 0.921.
GCAGTAGTC was tested, and the switch fluorescence ratio was 1.12.
In the case of TTTACGAGG, the switch fluorescence ratio is reported as 1.
TTTCCAGCTA was tested, and the switch fluorescence ratio was 1.09.
GACGGGAATA was tested, and the switch fluorescence ratio was 1.31.
ACTCTTTAAC showed a switch fluorescence ratio of 1.
For AAGTAAGCG, the switch fluorescence ratio was 0.985.
In the case of TGGAACGTTG, the switch fluorescence ratio is reported as 1.03.
CTGGACGATA gave a switch fluorescence ratio of 1.1.
For GGCATAGTTA, the switch fluorescence ratio was 0.976.
Sequence TTCGCCCACT has a switch fluorescence ratio of 1.26.
TGACCTCGGG was tested, and the switch fluorescence ratio was 1.01.
Sequence CGCAATTTTG has a switch fluorescence ratio of 3.3.
With TTTTCCGCAG the switch fluorescence ratio was 5.13.
AGTCGCATGG gave a switch fluorescence ratio of 1.02.
Sequence CTTACCTTAT has a switch fluorescence ratio of 1.08.
Sequence CAGAATTTTT has a switch fluorescence ratio of 0.992.
TAAAGCCGTG was tested, and the switch fluorescence ratio was 1.01.
Sequence GGCACGGTGG has a switch fluorescence ratio of 1.
In the case of AGGGGAGCCG, the switch fluorescence ratio is reported as 0.959.
Sequence ACTTCTCTTC has a switch fluorescence ratio of 1.04.
CTTTTAAGTG showed a switch fluorescence ratio of 0.975.
AGAATGTATT gave a switch fluorescence ratio of 1.01.
In the case of AACCTCTCTG, the switch fluorescence ratio is reported as 1.25.
With GGGATACTGC the switch fluorescence ratio was 1.02.
AACAAAAGAT showed a switch fluorescence ratio of 0.943.
In the case of GATCCACCAT, the switch fluorescence ratio is reported as 1.07.
For TATGGGGCTC, the switch fluorescence ratio was 1.01.
GAGCACCGGT showed a switch fluorescence ratio of 1.07.
Sequence CTTTACTCTT has a switch fluorescence ratio of 0.998.
CTATGGTAGC gave a switch fluorescence ratio of 1.01.
With GACTACTTTG the switch fluorescence ratio was 0.987.
Work on ACAGTAGACG yielded a switch fluorescence ratio of 0.983.
In the case of TATCGGCCTG, the switch fluorescence ratio is reported as 1.09.
CGTCCACACT gave a switch fluorescence ratio of 1.26.
For ATTTAGTGCT, the switch fluorescence ratio was 0.974.
Work on TGCTTTGCCA yielded a switch fluorescence ratio of 1.01.
AACTATTGG showed a switch fluorescence ratio of 1.
CGGCGAGTGT gave a switch fluorescence ratio of 1.01.
For CCAAGTACAG, the switch fluorescence ratio was 1.3.
ATTAGACTCT gave a switch fluorescence ratio of 0.978.
GGAGCAAACA showed a switch fluorescence ratio of 2.41.
CTAGTGCACC showed a switch fluorescence ratio of 1.01.
CTAGGTCCTT was tested, and the switch fluorescence ratio was 0.977.
CTTTCACAG gave a switch fluorescence ratio of 1.01.
CTCCGATAGC gave a switch fluorescence ratio of 6.3.
With CAGGATACGT the switch fluorescence ratio was 1.06.
TTAGGGAGGA was tested, and the switch fluorescence ratio was 0.978.
Sequence GCTGGGCTGG has a switch fluorescence ratio of 1.01.
With TTATGAGAAT the switch fluorescence ratio was 1.02.
GGCGGTTGCA gave a switch fluorescence ratio of 0.993.
Sequence CCACCACATA has a switch fluorescence ratio of 1.78.
Sequence ACAAAATGAA has a switch fluorescence ratio of 0.937.
Sequence AATGTTGGT has a switch fluorescence ratio of 1.02.
TGGTCTAGCA was tested, and the switch fluorescence ratio was 0.962.
Sequence TCATGATCTT has a switch fluorescence ratio of 0.984.
For CCATACTTAG, the switch fluorescence ratio was 1.03.
For CCCCCAAGA, the switch fluorescence ratio was 1.79.
Work on GTGGTCATTC yielded a switch fluorescence ratio of 1.01.
Sequence GAAAAGTATA has a switch fluorescence ratio of 1.
Sequence ACGGGCTGTA has a switch fluorescence ratio of 0.992.
For TGGGTTCTCT, the switch fluorescence ratio was 1.01.
With CTTGGTTGAT the switch fluorescence ratio was 1.03.
With TACTTGCTA the switch fluorescence ratio was 0.988.
With AATCCTATTA the switch fluorescence ratio was 0.936.
ACACGAGTTA showed a switch fluorescence ratio of 1.02.
In the case of GGCCGGGCAC, the switch fluorescence ratio is reported as 0.994.
Work on TTGTAATGCT yielded a switch fluorescence ratio of 1.22.
Work on ACATCTAAAA yielded a switch fluorescence ratio of 0.973.
AATCATGAGC showed a switch fluorescence ratio of 1.06.
Sequence AGAAGCATG has a switch fluorescence ratio of 1.02.
In the case of ACTCGTTGGC, the switch fluorescence ratio is reported as 1.
With CCCATTCGGG the switch fluorescence ratio was 0.963.
AATTGTGGCA showed a switch fluorescence ratio of 1.
TCATGAATGT showed a switch fluorescence ratio of 1.02.
Sequence ACAGGCGGAG has a switch fluorescence ratio of 1.01.
Work on CAATGTGTT yielded a switch fluorescence ratio of 1.01.
In the case of TTTGCCGGA, the switch fluorescence ratio is reported as 0.954.
TCTTTTCTAA gave a switch fluorescence ratio of 1.
With AATGGAGGAA the switch fluorescence ratio was 1.06.
With TCTGGCTCTA the switch fluorescence ratio was 1.
